{
  "source": "PubChem BioAssay AID1347417",
  "about": "(National Center for Advancing Translational Sciences (NCATS), 2020)",
  "note": "Among all 120,000 compounds or so, about 5,300 (4.4%) were called active. Inconclusive results, whose numbers are uncertain, are shown with a selection of clear calls. Calls follow the shape of the dose curve; as a rule, active = well fitted inhibition curve with a large enough effect; inconclusive = small, poorly fitted or top-dose-only effect; inactive = no such curve, though single readings can be large or run the other way. A potency beside an inconclusive call is a rough fit, not a confirmed value. Potency is read from the fitted curve at half-maximal effect; tags tell the direction and shape of the fitted curve.",
  "data": [
    {"experiment": "qHTS Primary assay for Inhibitors of Plasmodium falciparum Dd2 growth in vitro; also: nearly all actives have a fitted effect of over 65% in size;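 as to activity, negative = inhibition: plate controls were DMSO vehicle for no effect and reference drug for full effect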", "settings": "P. falciparum Dd2 growth, SYBR Green, 72 h; activity, negative = inhibition: at 28.9 µM (top of the series) unless noted; series mostly up to 28.9 µM", "summary_of_the_method": "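Readout: SYBR Green fluorescence, 485 nm excitation, 535 nm emission, after ~16 h lysis at 37C. Before that, Dd2-infected red cells (2.5% hematocrit) grew 72 h with compound, 29 uM top final concentration.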", "values": [
      {"smiles": "COc1ccc(OC)c(CNC(=O)c2ccc3c(c2)c(C)c(C)n3Cc2ccc(Cl)cc2)c1", "Potency": "inconclusive: 17.8 µM [inhibitor, single point]"},
      {"smiles": "Cc1ccc(C)c(CN2C(=O)C(O)(c3c(C)[nH]c4ccccc34)c3ccccc32)c1", "note": "(stereo not drawn)", "Potency": "inconclusive: 11.2 µM [inhibitor, single point]"},
      {"smiles": "O=C1C(N2CCN(S(=O)(=O)c3ccccc3)CC2)CCN1Cc1ccccn1", "note": "(stereo not drawn)", "activity, negative = inhibition": "inactive: -12.1%"},
      {"smiles": "COc1ccc(OC)c(S(=O)(=O)N2CCC(Cc3ncc(C)n3C3CC3)C2)c1", "note": "(stereo not drawn)", "Potency": "inconclusive: 4.47 µM [inhibitor, partial curve, poor fit]"},
      {"smiles": "O=C(C1CCCN(S(=O)(=O)c2cccc3nsnc23)C1)N1CCN(c2ccccc2)CC1", "note": "(stereo not drawn)", "Potency": "inconclusive: 12.6 µM [inhibitor, single point]"},
      {"smiles": "COc1ccc(CNC(=O)N2CCC(c3noc(-c4ccccc4)n3)C2)cc1", "note": "(stereo not drawn)", "activity, negative = inhibition": "inactive: 7.23% [at 5.79 µM]"},
      {"smiles": "CN(C)c1ccc(CN(C)C2CCc3ccccc3C2)cc1", "note": "(stereo not drawn)", "Potency": "inconclusive: 11.2 µM [inhibitor, partial curve]"},
      {"smiles": "Cc1ccc(C(=O)N2CCCCCC2c2nnc(-c3ccccc3)o2)cn1", "note": "(stereo not drawn)", "activity, negative = inhibition": "inactive: -16.1%"},
      {"smiles": "CN(Cc1ccccc1)C(=O)Cc1ccc(N(Cc2cccc(F)c2)C(=O)c2ccco2)cc1", "Potency": "inconclusive: 2.82 µM [inhibitor, single point]"},
      {"smiles": "COc1ccc(-n2c(-c3ccco3)nc3c(cnn3-c3ccc(Cl)cc3)c2=O)cc1", "Potency": "active: 10 µM"},
      {"smiles": "CC1(C)O[C@H]2[C@@H](O1)[C@@H](C(=O)Nc1ccccc1C(F)(F)F)O[C@@H]1OC(C)(C)O[C@@H]12", "Potency": "inconclusive: 0.891 µM [inhibitor, single point]"},
      {"smiles": "CN1[C@@H](CCC(=O)NCc2cccnc2)CNC(=O)[C@@H]2[C@H]1CCN2Cc1cccc(OC(F)(F)F)c1", "Potency": "inconclusive: 10 µM [inhibitor, single point]"},
      {"smiles": "CCOc1ccc(/C=C/c2nc(C#N)c(NCc3ccccc3)o2)cc1", "Potency": "inconclusive: 14.1 µM [inhibitor, single point]"},
      {"smiles": "Cc1cccc(-n2nc(-c3c(C)nc4scc(CC(=O)N5CCCC5)n4c3=O)cc2C)c1C", "Potency": "inconclusive: 3.98 µM [inhibitor, single point]"},
      {"smiles": "COc1ccc(-c2cnc(NCc3ccccc3)c3c2CCO3)cc1", "outcome": "inactive [at 44.1 µM]"},
      {"smiles": "COCCNC(=O)C[C@@H]1C[C@@H](C(C)C)[C@H](CNS(=O)(=O)c2ccccc2)C=C1C", "Potency": "inconclusive: 11.2 µM [inhibitor, partial curve]"},
      {"smiles": "COc1ccc(-c2[nH]nc3ncc(-c4cn[nH]c4)nc23)cc1F", "Potency": "inconclusive: 0.447 µM [inhibitor, partial curve, poor fit]"},
      {"smiles": "COc1ccc(-c2cc(-c3c(C)noc3C)cc3c2C(=O)N(C)C3)cn1", "Potency": "inconclusive: 31.6 µM [inhibitor, single point]"},
      {"smiles": "COc1ccc(C(=O)N2CCc3ccc(C(=O)NC4CCCCC4)cc32)cc1", "Potency": "inconclusive: 17.8 µM [inhibitor, single point]"},
      {"smiles": "CS(=O)(=O)N1CC2(CCN(CC3CCCCC3)CC2)Cc2ccccc21", "Potency": "inconclusive: 3.16 µM [inhibitor, partial curve]"},
      {"smiles": "CCCCNC(=O)CSc1nc2n[nH]c(C)c2c(=N)n1-c1cccc(Cl)c1C", "Potency": "inconclusive: 12.6 µM [inhibitor, partial curve]"},
      {"smiles": "O=C(CC(c1cccc([N+](=O)[O-])c1)c1c[nH]c2ccccc12)NCc1ccccc1", "note": "(stereo not drawn)", "Potency": "inconclusive: 0.355 µM [inhibitor, full curve, poor fit]"},
      {"smiles": "C=CCO[C@@H]1C[C@H]2C(=O)Nc3ccc(-c4ccc(OC)cc4)cc3C(=O)N2C1", "Potency": "inconclusive: 31.6 µM [inhibitor, single point]"},
      {"smiles": "CN1Cc2ncnc(N3CCN(Cc4ccccc4)CC3)c2CN(c2ccc(Cl)cc2)C1=O", "Potency": "inconclusive: 8.91 µM [inhibitor, single point]"},
      {"smiles": "O=c1[nH]c(N2CCOCC2)nc2c1CCN(Cc1ccc(Cl)c(F)c1)CC2", "Potency": "inconclusive: 1.78 µM [inhibitor, partial curve]"},
      {"smiles": "COc1ccc(NC(=O)Cn2cccc2-c2nc(-c3ccccc3)no2)cc1OC", "Potency": "inconclusive: 12.6 µM [inhibitor, single point]"},
      {"smiles": "COc1cc(OC)cc(N2C(=O)N(Cc3ccc(C(C)(C)C)cc3)c3ccccc3S2(=O)=O)c1", "Potency": "inconclusive: 11.2 µM [inhibitor, single point]"},
      {"smiles": "Cn1cc(-c2cccc(COc3ccc4c(cnn4CC[S+](C)(=O)[O-])c3)c2)cn1", "Potency": "inconclusive: 12.6 µM [inhibitor, partial curve, poor fit]"},
      {"smiles": "CCOC(=O)c1c(C)[nH]c(C)c1S(=O)(=O)NCC(=O)Nc1cccc(C#N)c1", "activity, negative = inhibition": "inactive: 6.08%"},
      {"smiles": "CN(C(=O)Cn1cccc1-c1nc(-c2ccc(F)cc2)no1)c1ccccc1", "activity, negative = inhibition": "inactive: -3.31%"},
      {"smiles": "COc1ccc(CN2CCC(CO)(CCCc3ccccc3)CC2)c(Cl)c1OC", "Potency": "inconclusive: 2 µM [inhibitor, full curve]"},
      {"smiles": "O=C(Nc1cc(F)ccc1F)N1CC(c2nnc(-c3ccncc3)o2)C2(CCOCC2)C1", "note": "(stereo not drawn)", "activity, negative = inhibition": "inactive: -9.16%"},
      {"smiles": "CCCc1nc(C(=O)NC2CCCc3nc(N(C)C)ncc32)cs1", "note": "(stereo not drawn)", "activity, negative = inhibition": "inactive: 17.3%"},
      {"smiles": "O=C(NC1CC1)c1ccccc1OC1CN(Cc2ccc(C(F)(F)F)cc2)C1", "Potency": "inconclusive: 12.6 µM [inhibitor, single point]"},
      {"smiles": "CCOc1ccccc1C(=O)NC(C)C(=O)N1CCN(c2ccccn2)CC1", "note": "(stereo not drawn)", "outcome": "inactive"},
      {"smiles": "Cc1ccccc1C(=O)N1CC(=O)Nc2ccc(Cl)cc2C1c1ccccc1", "note": "(stereo not drawn)", "Potency": "inconclusive: 15.8 µM [inhibitor, single point]"},
      {"smiles": "O=c1ccc2cc(S(=O)(=O)Nc3ccc(F)c(Cl)c3)ccc2[nH]1", "activity, negative = inhibition": "inactive: 24.5%"},
      {"smiles": "CC(C)(C)c1[nH]nc2c1C(c1ccnc3ccccc13)CC(=O)N2", "note": "(stereo not drawn)", "activity, negative = inhibition": "inactive: -11.7%"},
      {"smiles": "CCCN(CCC)CCCNC(=O)C1CCCN(Cc2nc(-c3ccc(Cl)cc3)oc2C)C1", "note": "(stereo not drawn)", "Potency": "inconclusive: 3.98 µM [inhibitor, partial curve, poor fit]"},
      {"smiles": "O=C(CCC[C@H]1NC[C@@H]2C[C@H]1CN(Cc1ccccc1)C2)NCc1ccc(N2CCOCC2)cc1", "Potency": "inconclusive: 11.2 µM [inhibitor, partial curve, poor fit]"},
      {"smiles": "CC(C)NC(=O)N1[C@H]2CC[C@@H]1c1cnc(-c3ccc(F)cc3)nc1C2", "activity, negative = inhibition": "inactive: -18.4%"},
      {"smiles": "CC1(C)C(=O)N(CCOc2ccccc2)[C@H]2CN(C3CCOCC3)C[C@H]2[S+]1(=O)[O-]", "activity, negative = inhibition": "inactive: -19% [at 44.1 µM]"},
      {"smiles": "Cc1cccc(C(=O)N2C(C(=O)NCc3ccc4c(c3)OCO4)COC23CCC(C)CC3)c1", "note": "(stereo not drawn)", "Potency": "inconclusive: 10 µM [inhibitor, partial curve, poor fit]"},
      {"smiles": "COc1cc2c(cc1OCc1ccccc1)N(C(=O)CC1CC1)CC21CCN(C)CC1", "Potency": "inconclusive: 3.16 µM [inhibitor, single point]"},
      {"smiles": "Cc1ccc(Cn2c(=O)n(CCc3ccc(Cl)cc3)c(=O)c3ccccc32)cc1", "activity, negative = inhibition": "inactive: 111%"},
      {"smiles": "CS(=O)(=O)N1CCCC(C(=O)NCc2ccccn2)CCNC(=O)CC1", "note": "(stereo not drawn)", "activity, negative = inhibition": "inactive: 23.5%"},
      {"smiles": "CC(=O)c1ccc(NC(=O)O[C@@H]2CO[C@H]3[C@@H]2OC[C@@H]3NC(=O)Nc2ccc(Oc3ccccc3)cc2)cc1", "outcome": "inactive"},
      {"smiles": "COc1ccc(NC(=O)Cn2c(=O)n(Cc3ccccc3OC)c(=O)c3cccnc32)cc1Cl", "Potency": "inconclusive: 11.2 µM [inhibitor, single point]"},
      {"smiles": "CN1CC(=O)N(C2CCNCC2)Cc2c(NCCN3CCOCC3)ncnc21", "activity, negative = inhibition": "inactive: 13.7%"},
      {"smiles": "Cc1nc(-c2ccc(Cl)cc2)n(Cc2ccc(F)c(F)c2)c(=O)c1CCO", "Potency": "inconclusive: 17.8 µM [inhibitor, single point]"},
      {"smiles": "COc1ccc(OC)c(NC(=O)C2Cc3ccccc3CN2S(=O)(=O)c2ccc(F)cc2)c1", "note": "(stereo not drawn)", "Potency": "inconclusive: 20 µM [inhibitor, single point]"},
      {"smiles": "CN1C(=O)[C@H]2CN(Cc3ccc(Br)s3)C[C@H]2C1=O", "Potency": "inconclusive: 0.224 µM [inhibitor, full curve]"},
      {"smiles": "CC1=NS(=O)(=O)N(C)C=C1C(=O)OCc1nc(-c2cccs2)no1", "activity, negative = inhibition": "inactive: 5.66%"},
      {"smiles": "CN1C(=O)[C@@H]2C[C@@H](CN2C(=O)c2ccccc2)Oc2ccccc21", "activity, negative = inhibition": "inactive: 9.56% [at 44.1 µM]"},
      {"smiles": "Cc1ccc(-c2cc3c(=O)n(CCNC(=O)c4nn(C)c5ccccc45)ccn3n2)c(C)c1", "Potency": "inconclusive: 1.41 µM [inhibitor, partial curve]"},
      {"smiles": "O=S(=O)(c1ccc(Cl)cc1)c1nc(-c2cccs2)oc1SCc1ccc(F)cc1", "Potency": "inconclusive: 7.94 µM [inhibitor, single point]"},
      {"smiles": "O=C(Cc1ccc(F)cc1)N1CCC2(CC1)NC(=O)N(c1ccccc1)N2", "Potency": "inconclusive: 4.47 µM [inhibitor, partial curve, poor fit]"},
      {"smiles": "CCOC(=O)c1ccc(N2C(=O)c3[nH]nc(-c4ccc(C)cc4)c3C2c2cccs2)cc1", "note": "(stereo not drawn)", "Potency": "active: 11.2 µM"},
      {"smiles": "Cc1oc2ccn(Cc3ccccc3F)c(=O)c2c1C(=O)NCc1cccc(Cl)c1", "Potency": "inconclusive: 3.16 µM [inhibitor, full curve, poor fit]"},
      {"smiles": "CCCCN(CCCC)CCCNC(=O)Cn1cc2c(n1)-c1c(oc(C(=O)N3CCCC3)c1C)CC2", "Potency": "active: 11.2 µM"},
      {"smiles": "CCc1cccc(NC(=O)CN(c2ccc(C)c(C)c2)S(=O)(=O)c2ccsc2C(=O)OC)c1", "Potency": "inconclusive: 15.8 µM [inhibitor, single point]"},
      {"smiles": "O=C1NCCCCCCN(C(=O)Cc2cccnc2)[C@@H]2C[C@@H](c3nc(-c4cccnc4)no3)C[C@H]12", "outcome": "inactive"},
      {"smiles": "Cc1ccc(C)c(Cn2c(=O)n(CCCCC(=O)NCc3ccc4c(c3)OCO4)c(=O)c3ccccc32)c1", "Potency": "inconclusive: 0.631 µM [inhibitor, full curve, poor fit]"}
    ]}
  ]
}
